# Whole data set: some 81,000 sequences, median “one-hybrid fitness for binding parS DNA” near -0.17, cut for the highest 2% near 0.51. The list shows a part of the results.
# B1: Caulobacter ParB omega fusion; a variant is named by its letters at X, in order, B8GW30 (parent)
# chain: MESVVVGEPGMSEGRRGLGRGLSALLGEVDAAPAQAPGEQLGGSREAPIEILQRNPDQPRRTFREEDLEDLSNSIREKGVLQPILVRPSPDTAGEYQIVAGERAWRAAQRAGLKTVPIMVRELDDLAVLEIGIIENVQRADLNVLEEALSYKVLMEKFERTQENIAQTIGKSXSHVANXMRLLXLPDEVQSYLVSGELTAXHARAIAAAADPVALAKQIIEGGLSVRETEALARKAPNLSAGKSKGGRPPRVKDTDTQALESDLSSVLGLDVSIDHRGSTGTLTITYATLEQLDDLCNRLTRGI
# Variants of: B1
# Test: one-hybrid fitness for binding parS DNA (scaled: cognate 1, non-cognate 0); higher = stronger binding
# Conditions: with parS DNA site
# How it was run: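 Selection: bacterial one-hybrid in E. coli USO, HIS3 reporter with the site 19 bp from the promoter, 48 hours at 37°C on M9-minus-histidine plus 0.1 mM IPTG and 5 mM 3-AT. Libraries were Caulobacter ParB with four randomised specificity codons, sequenced on Illumina before and after selection. Fitness is the rescaled log change in variant-to-wild-type read ratio, anchored to the cognate and non-cognate sites.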
row,Variant,one-hybrid fitness for binding parS DNA
1,TPLE,≤ 0.2
2,LQKT,≤ 0.2
3,QCKY,≤ 0.2
4,QCMC,≤ 0.2
5,ATGW,≤ 0.2
6,VSFR,≤ 0.2
7,PSGM,≤ 0.2
8,QAFA,≤ 0.2
9,RKNE,≤ 0.2
10,GHTQ,≤ 0.2
11,PNLT,≤ 0.2
12,NLML,≤ 0.2
13,FSDG,≤ 0.2
14,VRSH,≤ 0.2
15,TTST,≤ 0.2
16,AQLT,≤ 0.2
17,SNND,≤ 0.2
18,NLRR,≤ 0.2
19,NAMP,≤ 0.2
20,DLYV,≤ 0.2
21,QAFF,≤ 0.2
22,AQRK,≤ 0.2
23,ISAP,≤ 0.2
24,FPES,≤ 0.2
25,PQDR,≤ 0.2

row,Variant,one-hybrid fitness for binding parS DNA
1,LKDG,≤ 0.2
2,LRCR,≤ 0.2
3,GAHG,≤ 0.2
4,VGRN,≤ 0.2
5,LQES,≤ 0.2
6,STKH,≤ 0.2
7,CWTS,≤ 0.2
8,NMTR,≤ 0.2
9,EAGG,≤ 0.2
10,ELNM,≤ 0.2
11,RPHS,≤ 0.2
12,NVQM,≤ 0.2
13,QNKV,≤ 0.2
14,GSHF,≤ 0.2
15,RAKG,0.937
16,TLQS,≤ 0.2
17,HPKI,≤ 0.2
18,FESR,≤ 0.2
19,ISDC,≤ 0.2
20,GERY,≤ 0.2
21,EWTR,≤ 0.2
22,TDTT,≤ 0.2
23,KFCG,≤ 0.2
24,RSAI,≤ 0.2
25,YMDG,≤ 0.2

row,Variant,one-hybrid fitness for binding parS DNA
1,DRTE,≤ 0.2
2,GSLL,≤ 0.2
3,EEAD,≤ 0.2
4,WPVG,≤ 0.2
5,YPRY,≤ 0.2
6,AKHG,≤ 0.2
7,ENMS,≤ 0.2
8,DIIN,≤ 0.2
9,ISHY,≤ 0.2
10,VPSM,≤ 0.2
11,SIMC,≤ 0.2
12,AGIE,≤ 0.2
13,DGER,≤ 0.2
14,RIAI,≤ 0.2
15,RMLY,0.5
16,APRE,≤ 0.2
17,RQRC,0.943
18,NMPL,≤ 0.2
19,GNGS,≤ 0.2
20,QSIA,≤ 0.2
21,KAKS,≤ 0.2
22,AVCT,≤ 0.2
23,GHQC,≤ 0.2
24,NVVW,0.312
25,EGGY,≤ 0.2

row,Variant,one-hybrid fitness for binding parS DNA
1,WAPL,≤ 0.2
2,RYEG,0.901
3,AKKY,≤ 0.2
4,HCIR,≤ 0.2
5,GKFG,≤ 0.2
6,RTRH,0.4
7,PDSL,≤ 0.2
8,FRYT,≤ 0.2
9,WHPS,≤ 0.2
10,RHIT,0.581
11,DFKC,≤ 0.2
12,DGQR,≤ 0.2
13,QRHD,≤ 0.2
14,YCIG,≤ 0.2
15,EPSR,≤ 0.2
16,AREW,≤ 0.2
17,QTST,≤ 0.2
18,IYNC,≤ 0.2
19,ASET,≤ 0.2
20,NINS,≤ 0.2
21,FLTY,≤ 0.2
22,HMLI,≤ 0.2
23,ECPG,≤ 0.2
24,RFTV,≤ 0.2
25,RIRF,0.247

row,Variant,one-hybrid fitness for binding parS DNA
1,PWEK,≤ 0.2
2,SIAA,≤ 0.2
3,HEIA,≤ 0.2
4,RNFT,0.573
5,RPVF,≤ 0.2
6,SFAS,≤ 0.2
7,VFVV,≤ 0.2
8,CGTR,≤ 0.2
9,DRRR,≤ 0.2
10,NDRI,≤ 0.2
11,RLQF,0.229
12,QCDT,≤ 0.2
13,QRRF,≤ 0.2
14,NSDT,≤ 0.2
15,TNCK,≤ 0.2
16,LSNQ,≤ 0.2
17,LSTE,≤ 0.2
18,SEAR,≤ 0.2
19,AYSI,≤ 0.2
20,ACKL,≤ 0.2
21,GRCF,≤ 0.2
22,NCYS,≤ 0.2
23,VNYT,≤ 0.2
24,GCWG,≤ 0.2
25,LCRW,≤ 0.2

row,Variant,one-hybrid fitness for binding parS DNA
1,PFDN,≤ 0.2
2,SHLE,≤ 0.2
3,VDCS,≤ 0.2
4,RLKI,≤ 0.2
5,GRMY,≤ 0.2
6,VLQV,≤ 0.2
7,HQMS,≤ 0.2
8,WFQG,≤ 0.2
9,LHSS,≤ 0.2
10,LGPG,≤ 0.2
11,RLKA,0.796
12,RFAI,≤ 0.2
13,MPSG,≤ 0.2
14,RERH,≤ 0.2
15,HLGC,≤ 0.2
16,RLMM,0.338
17,ENLA,≤ 0.2
18,VCCT,≤ 0.2
19,KKYD,≤ 0.2
20,HWHG,≤ 0.2
21,TSAS,≤ 0.2
22,CLMC,≤ 0.2
23,VCML,≤ 0.2
24,QRPR,≤ 0.2
25,NMAF,≤ 0.2

row,Variant,one-hybrid fitness for binding parS DNA
1,MNKG,≤ 0.2
2,SAFW,≤ 0.2
3,WDKP,≤ 0.2
4,NVDD,≤ 0.2
5,VEQG,≤ 0.2
6,NLHV,≤ 0.2
7,TQDV,≤ 0.2
8,LECT,≤ 0.2
9,ANNS,≤ 0.2
10,VSRC,≤ 0.2
11,MAGR,≤ 0.2
12,DNSL,≤ 0.2
13,AHNK,≤ 0.2
14,EVQC,≤ 0.2
15,RFCK,≤ 0.2
16,RGFC,0.454
17,GDLV,≤ 0.2
18,YIHF,≤ 0.2
19,RKHW,≤ 0.2
20,TNRT,≤ 0.2
21,ELEM,≤ 0.2
22,QAHD,≤ 0.2
23,PDNT,≤ 0.2
24,GGLT,≤ 0.2
25,LSAP,≤ 0.2

row,Variant,one-hybrid fitness for binding parS DNA
1,VCHT,≤ 0.2
2,ARSL,≤ 0.2
3,RLNS,0.932
4,PNYT,≤ 0.2
5,HAVV,≤ 0.2
6,SLMV,≤ 0.2
7,PSCE,≤ 0.2
8,PNLW,≤ 0.2
9,RGDM,≤ 0.2
10,EFFS,≤ 0.2
11,SMIS,≤ 0.2
12,VMHH,≤ 0.2
13,QAWD,≤ 0.2
14,RDHV,≤ 0.2
15,SSWS,≤ 0.2
16,NHSP,≤ 0.2
17,SCNF,≤ 0.2
18,SKSF,≤ 0.2
19,AGES,≤ 0.2
20,PFQY,≤ 0.2
